# Hit rate of the full screen: of about 420,000 compounds, about 64,000 (15%) were called active. The shares of active, inactive and inconclusive entries below differ from those in the screen. Calls follow the shape of the dose curve; as a rule, active = well fitted inhibition curve with a large enough effect; inconclusive = small, poorly fitted or top-dose-only effect; inactive = flat fitted curve, though single readings scatter. Potencies of inconclusive entries are left out as doubtful fits.
# Assay: qHTS for Inhibitors of human tyrosyl-DNA phosphodiesterase 1 (TDP1): qHTS in cells in absence of CPT; also: nearly all actives have a fitted effect of over 55% in size
# Details: DT40 Tdp1-/- hTDP1 cells, no CPT, ATP luminescence, 48 h; activity change, negative = growth inhibition: at 46.2 µM (top of the series) unless noted
# Outline: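 A cellular qHTS used chicken DT40 cells lacking endogenous Tdp1 but carrying stably transfected human TDP1. Compounds were applied without camptothecin, and cell growth kinetics were judged by ATP-dependent luminescence after ≥48 hr.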
# % is scaled to controls: 0 for no effect and ±100 for the full control effect; potency is read from the fitted curve at half-maximal effect; tags tell the direction and shape of the fitted curve.
Compound,"activity change, negative = growth inhibition",Potency
COc1ccc(CCc2nnc(CCC(=O)NCc3cc(C(C)C)no3)o2)cc1,inactive: -11.7%,
O=S(=O)(c1ccc2ccccc2c1)N1CCN(S(=O)(=O)N2CCOCC2)CC1,,"inconclusive [inhibitor, partial curve]"
O=C1CCCc2c1cc(-c1ccccc1)n2-c1ccc(O)cc1,,"inconclusive [inhibitor, single point]"
CCOC(=O)C(C)Sc1nnc(CSc2nc3nc(C)cc(C)n3n2)o1 (stereo not drawn),inconclusive: -35.4% [inhibitor],
Cc1nc2sc(C(=O)N(C)Cc3ccccc3)c(NC(=O)c3ccccc3)c2c(C)c1Cl,,active: 16.4 µM
CCn1c2ccccc2c2nnc(N3CCN(c4ccc(F)cc4)CC3)nc21,,"inconclusive [inhibitor, partial curve]"
COc1ccc(NC(=O)c2ccc(CN3C(=O)CCn4nc(C)cc43)cc2)c(OC)c1,inactive: 9.1%,
CCN(CC)c1nn2c(=O)c(C(=O)NCCc3ccc(C)cc3)cnc2s1,,"inconclusive [inhibitor, single point]"
O=c1cc(-c2ccccc2)c2ccccc2[nH]1,,"inconclusive [inhibitor, single point]"
CCOC(=O)c1c(NC(=O)COc2cccc(C(F)(F)F)c2)sc2c1CCC(C)C2 (stereo not drawn),inactive: -29.6%,
Cc1ccc(C(=O)N/N=C/c2ccc([N+](=O)[O-])s2)cc1,,active: 7.31 µM
Cc1cc(C)nc(NS(=O)(=O)c2ccc(NC(=O)c3cccs3)cc2)n1,,"inconclusive [inhibitor, partial curve, poor fit]"
Cc1ccc(S(=O)(=O)N(CC(=O)N/N=C/c2cccc3c2OCCO3)c2ccccc2F)cc1,,"inconclusive [inhibitor, single point]"
COc1ccc(C(CNC(=O)c2ccc(C)c(S(=O)(=O)Nc3ccccc3OC)c2)N2CCCC2)cc1 (stereo not drawn),,"inconclusive [inhibitor, single point]"
CCCC(=O)Nc1ccc2c(c1)nc(CN1CCN(C(=O)OCC)CC1)n2C(C)C,,active: 0.0651 µM
COc1ccc(NC(=O)CSc2cn(CC(=O)N3CCCCC3)c3ccccc23)c(OC)c1,,"inconclusive [inhibitor, single point]"
COc1ccc2c(CN3CCCCCCC3)cc(=O)oc2c1,,"inconclusive [inhibitor, single point]"
CCOc1ccc(NC(=O)/C=C/c2ccccc2)c([N+](=O)[O-])c1,,"inconclusive [inhibitor, partial curve, poor fit]"
CCOC(=O)[C@]12CCCC=C1N(Cc1ccccc1)C(=O)[C@H](CC(=O)N1CCN(C(=O)c3ccco3)CC1)C2,inactive: -17.3%,
COc1cc(/C=C(\C#N)c2ccccn2)ccc1OCc1ccccc1Cl,,"inconclusive [inhibitor, single point]"
CCOc1ccc(CNC(=O)c2ccc(Sc3ccc(Cl)cc3)c(NC(C)=O)c2)cc1,,active: 18.4 µM
COCCNC(=O)Cc1c(C)c2c(cc(C)c3c(C)coc32)oc1=O,,"inconclusive [inhibitor, partial curve, poor fit]"
Cc1cc(NC(=O)Nc2c[nH]c(=O)[nH]c2=O)ccc1Br,inactive: 6.32%,

Compound,"activity change, negative = growth inhibition",Potency
O=C(N[C@@H](Cc1ccc(O)cc1)C(=O)O)c1cccnc1,inactive: -0.958%,
Cc1[nH]c2c(Br)cccc2c1[C@H]1[C@@H](CC#N)C1(C)C,,"inconclusive [inhibitor, single point]"
COc1cc(C(=O)Nc2c(C(=O)N3CCOCC3)oc3ccccc23)cc(OC)c1OC,,"inconclusive [inhibitor, partial curve, poor fit]"
COc1ccc(C(=O)N[C@H](C(=O)OCn2nnc3ccccc3c2=O)C(C)C)cc1,,"inconclusive [inhibitor, single point]"
N#CC1=C(Nc2ccccc2Cl)SC(c2ccccc2O)NC1=O (stereo not drawn),,"inconclusive [inhibitor, single point]"
c1ccc(C2CSc3ccccc3N2)cc1 (stereo not drawn),,"inconclusive [inhibitor, single point]"
CC(C)(C)OC(=O)Nc1ccc([C@@H](NC(=O)OC(C)(C)C)C(=O)OC(C)(C)C)cc1,,"inconclusive [inhibitor, full curve]"
CC(C)COC(=O)C1C2C=CC3(CN(C(C)c4ccc(Br)cc4)C(=O)C13)O2 (stereo not drawn),,"inconclusive [inhibitor, single point]"
COc1ccc(NC(=O)C(NC(C)=O)C(=O)NCc2ccccc2Cl)cc1 (stereo not drawn),,"inconclusive [inhibitor, partial curve, poor fit]"
COc1ccc(-c2c(-c3cc(OC)cc(OC)c3)n(C)c3ccc(-c4cnc(OC)nc4)cc23)cc1,,active: 18.4 µM
CCCCN(CCCC)CCCNC(=O)C1CC(c2ccc(C(F)(F)F)cc2)=NO1 (stereo not drawn),,"inconclusive [inhibitor, partial curve]"
O=C(CCNS(=O)(=O)c1ccccc1F)N1CCN(Cc2ccccc2)CC1,inactive: -2.48%,
Cc1ccc(N(CC(=O)NC(C)(C)C)C(=O)CNC(=O)c2cccs2)c(C)c1,inactive: -13.5%,
CCN(CC)C(=O)Cn1cc(C(=O)C2CC2)c2ccccc21,inactive: -2.05%,
COc1ccc(C)c2sc(NC(=O)c3ccc(S(=O)(=O)N4CCCCC4)cc3)nc12,inactive: -2.08%,
CCOc1ccc(NC(=O)CSc2oc(-c3ccco3)nc2S(=O)(=O)c2ccc(C)cc2)cc1,,"inconclusive [inhibitor, single point]"
COc1ccc(C(=O)/C=C/C(=O)N(Cc2ccc(F)cc2)C(C(=O)NC2CCCCC2)c2ccncc2)c(O)c1 (stereo not drawn),,"inconclusive [inhibitor, single point]"
COc1ccc(N2CC(NC(=O)COc3ccccc3F)CC2=O)cc1OC (stereo not drawn),inactive: -11.6%,
CCCC(=O)Nc1nc2ccc(NC(=O)c3c(F)c(F)c(OC)c(F)c3F)cc2s1,,active: 0.651 µM
O=C1NC(=O)/C(=C\c2ccccc2OCc2cccc([N+](=O)[O-])c2)N1,inactive: -11.9%,
O=C(c1ccccc1)c1cc([N+](=O)[O-])ccc1N1CCOCC1,,active: 0.82 µM
O=C(NCc1ccccc1)/C(NC(=O)c1ccccc1)=C(/Sc1ccccn1)c1ccccc1,,"inconclusive [inhibitor, single point]"
O=[N+]([O-])c1ccccc1/C=N/N1CCN(c2ccc(Cl)cc2)CC1,,"inconclusive [inhibitor, single point]"

Compound,"activity change, negative = growth inhibition",Potency
COc1ccc(/C=N/n2c(=O)[nH]c3c([nH]c4ccc(Cl)cc43)c2=O)cc1CN1CCCCC1,,"inconclusive [inhibitor, single point]"
COc1cc(C(C)=O)ccc1OCC(=O)Nc1ccc2nc(C)sc2c1,,"inconclusive [inhibitor, partial curve, poor fit]"
CCN(CC)CCCNC(=O)c1c(O)c2cc(F)cc3c2n(c1=O)C(C)CC3 (stereo not drawn),,"inconclusive [inhibitor, single point]"
Cc1cc(N2CCN(c3ccc(F)cc3)CC2)nc2cc(O)ccc12,,active: 14.6 µM
O=C(O)CC(C(=O)Nc1ccc(F)cc1)C1CCCO1 (stereo not drawn),,"inconclusive [inhibitor, full curve, poor fit]"
CCCCN1CC(COCc2ccccc2)Oc2cccc(NCc3ccc(OC)cc3)c2S1(=O)=O (stereo not drawn),,"inconclusive [inhibitor, single point]"
Cc1cc(Oc2cc(NN3CCCCC3)c([N+](=O)[O-])cc2[N+](=O)[O-])c(C(=O)c2ccccc2)cc1Cl,,"inconclusive [inhibitor, single point]"
CCCCn1c(SCc2cccc([N+](=O)[O-])c2)nc2ccsc2c1=O,,active: 23.1 µM
S=c1nc[nH]c2n[nH]nc12,,"inconclusive [inhibitor, single point]"
CCOC(=O)C1(C)/C(=N/Nc2ccccc2OC)C(=O)C(=O)N1c1ccccc1 (stereo not drawn),,active: 13 µM
CCCOc1ccc(NC(=O)CC2C(=O)N(c3ccc(C)cc3)C(=O)N2C(C)C)cc1 (stereo not drawn),,"inconclusive [inhibitor, single point]"
CCCN1CCN(CCCNC(=O)c2cc3c(Cl)nc4ccccc4c3s2)CC1,,"inconclusive [inhibitor, single point]"
CCOC(=O)C1CCN(C(=O)c2ccccc2NC(=O)c2ccc(Cl)cc2)CC1,,active: 23.1 µM
Cc1ccc(C(NC(=O)C2CCCCC2)c2c(O)ccc3ccccc23)cc1 (stereo not drawn),,active: 20.6 µM
CCOc1ncccc1C(=O)OCc1ccc(C(=O)OC)cc1,,"inconclusive [inhibitor, partial curve]"
COc1cccc(CN(C)C(=O)CCc2nnc(-c3ccsc3)o2)c1,inactive: -2.1%,
CC(C)Cn1c(SCC(=O)NC(=O)NC2CCCC2)nc2ccccc21,,active: 16.4 µM
COc1ccc(F)cc1S(=O)(=O)Nc1ccc(C)cc1,,active: 23.1 µM
CCOc1ccc(CCNC(=O)c2ccc(-c3nc(CSc4ccc(C)cc4)c(C)o3)cc2)cc1,inactive: -5.15%,
Cc1ccc(S(=O)(=O)N2CC3(O)CN(C(=O)OC(C)C)N(C(=O)OC(C)C)CC3(OC(=O)NC3CCCC3)C2)cc1 (stereo not drawn),,active: 23.1 µM
CC1(C(=O)NS(=O)(=O)c2cccc(C#N)c2)CCN1C(=O)c1ccccc1 (stereo not drawn),inactive: 1.63%,
CC(=O)N1c2ccc(S(=O)(=O)N3CCC(C(=O)N4CCCC(C)C4)CC3)cc2CC1C (stereo not drawn),,"inconclusive [inhibitor, partial curve, poor fit]"

# From PubChem BioAssay AID686978 (National Center for Advancing Translational Sciences (NCATS), 2013)
